Here are results for 24 compounds from patent US20180021277A1, “ANTI-VIRULENCE COMPOSITIONS AND METHODS” (priority 2012, published 2018).

Data set [1] has as its system MRSA strain USA300. Put plainly: microbe, parasite or virus in culture. Particulars: for Growth: DMSO control = 100; for activity at 1 µg/mL / activity at 10 µg/mL: Staphylococcus aureus, read-out: Growth.
Data set [2] concerns MRSA strain USA300. Briefly: microbe, parasite or virus in culture. Particulars: DMSO control = 100; for hemolysis at 1 µg/mL / hemolysis at 10 µg/mL: Staphylococcus aureus, Erythrocyte, in Oryctolagus cuniculus.

For `CCc1cc(C(=O)COc2ccccc2Cl)c(O)cc1O` [4b-2], the Growth was 102.4% in data set [1] (1 μg/mL compound) and 78.9% in data set [1] (10 μg/mL compound). The results for the Hemolysis in data set [2] (1 μg/mL compound) and in data set [2] (10 μg/mL compound) were 80.6 ± 0.4% and 0.9 ± 0.0%, respectively.

As for `CCc1cc(C(=O)COc2ccccc2F)c(O)cc1O` [4b-5], the Growth in data set [1] (1 μg/mL compound) was determined as 104.9%; in data set [1] (10 μg/mL compound), 105.2%. Further, the Hemolysis in data set [2] (1 μg/mL compound) was 85.5 ± 10.4%; in data set [2] (10 μg/mL compound), 9.3 ± 0.1%.

For `CCc1cc(C(=O)COc2ccc(F)cc2)c(O)cc1O` [4b-6], the Growth in data set [1] (1 μg/mL compound) came to 102.3%; in data set [1] (10 μg/mL compound) it was 100.2%. For the same compound, the Hemolysis in data set [2] (1 μg/mL compound) was found to be 85.1 ± 7.0%; in data set [2] (10 μg/mL compound), 11.1 ± 0.2%.

Regarding `CCc1cc(C(=O)COc2ccc(Br)cc2)c(O)cc1O` [4b-7], the Growth in data set [1] (1 μg/mL compound) worked out at 104%; in data set [1] (10 μg/mL compound), 10.5%. Further, the Hemolysis in data set [2] (1 μg/mL compound) was 159.4 ± 27.3%; in data set [2] (10 μg/mL compound) it was −0.1 ± 0.0%.

For `CCc1cc(C(=O)COc2ccc(I)cc2)c(O)cc1O` [4b-8], in data set [1], the activity at 1 µg/mL stood at 102% and the activity at 10 µg/mL amounted to 17.7%. In addition, in data set [2] (1 μg/mL compound), the hemolysis at 1 µg/mL was found to be 111 ± 10%. In addition, the hemolysis at 10 µg/mL in data set [2] (10 μg/mL compound) is -0.3%.

On to `CCc1cc(C(=O)COc2ccccc2C)c(O)cc1O` [4b-9], for which the Growth in data set [1] (1 μg/mL compound) is 103.7%; in data set [1] (10 μg/mL compound), 51.4%. For the same compound, the Hemolysis in data set [2] (1 μg/mL compound) turned out to be 72.9 ± 5.5%; in data set [2] (10 μg/mL compound), 0.4 ± 0.0%.

Consider `CCc1cc(C(=O)COc2cccc(C)c2)c(O)cc1O` [4b-10], for which, in data set [1], the activity at 1 µg/mL came to 102% and the activity at 10 µg/mL came to 86%. Further, the hemolysis at 1 µg/mL in data set [2] (1 μg/mL compound) is 66.7 ± 3.4%. The hemolysis at 10 µg/mL in data set [2] (10 μg/mL compound) turned out to be 1.6 ± 0.1%.

Turning to `CCc1cc(C(=O)COc2ccc(F)cc2F)c(O)cc1O` [4b-12], the Growth in data set [1] (1 μg/mL compound) came to 104.7%; in data set [1] (10 μg/mL compound), 93.2%. Also, the Hemolysis in data set [2] (1 μg/mL compound) came to 52.3 ± 2.1%; in data set [2] (10 μg/mL compound), 1.7 ± 0.2%.

Consider `CCc1cc(C(=O)COc2c(F)cccc2F)c(O)cc1O` [4b-13], for which the Growth turned out to be 105% in data set [1] (1 μg/mL compound) and 85.1% in data set [1] (10 μg/mL compound). Also, the figures for the Hemolysis in data set [2] (1 μg/mL compound) and in data set [2] (10 μg/mL compound) were 48.1 ± 3.5% and 1.2 ± 0.1%, respectively.

Take `CCc1cc(C(=O)COc2ccc(F)c(F)c2)c(O)cc1O` [4b-14]: in data set [1], the activity at 1 µg/mL was found to be 107% and the activity at 10 µg/mL was 79.2%. In addition, the hemolysis at 1 µg/mL in data set [2] (1 μg/mL compound) worked out at 53.6 ± 3.8%. Moreover, the hemolysis at 10 µg/mL in data set [2] (10 μg/mL compound) stood at 0%.

Turning to `CCc1cc(C(=O)COc2cc(F)cc(F)c2)c(O)cc1O` [4b-15], in data set [1], the activity at 1 µg/mL was determined as 107% and the activity at 10 µg/mL is 63.9%. Further, the hemolysis at 1 µg/mL in data set [2] (1 μg/mL compound) stood at 49.3 ± 3.7%. The hemolysis at 10 µg/mL in data set [2] (10 μg/mL compound) is -0.4%.

For `CCc1cc(C(=O)COc2cc(F)c(F)c(F)c2)c(O)cc1O` [4b-17], in data set [1], the activity at 1 µg/mL turned out to be 103% and the activity at 10 µg/mL was found to be 40.8%. Further, the hemolysis at 1 µg/mL in data set [2] (1 μg/mL compound) was 98.5 ± 4%. In addition, the hemolysis at 10 µg/mL in data set [2] (10 μg/mL compound) was 0.6 ± 0.1%.

Turning to `CCc1cc(C(=O)COc2c(F)c(F)c(F)c(F)c2F)c(O)cc1O` [4b-18], in data set [1], the activity at 1 µg/mL came to 97.2% and the activity at 10 µg/mL turned out to be 4.1%. In data set [2] (1 μg/mL compound), the hemolysis at 1 µg/mL came to 117 ± 6.4%. The hemolysis at 10 µg/mL in data set [2] (10 μg/mL compound) came out at 0.7%.

As to `CCc1cc(C(=O)COc2ccc(C(C)C)cc2)c(O)cc1O` [4b-19], in data set [1], the activity at 1 µg/mL turned out to be 95.4% and the activity at 10 µg/mL is 2.1%. The hemolysis at 1 µg/mL in data set [2] (1 μg/mL compound) came out at 55.5 ± 9.8%. Also, in data set [2] (10 μg/mL compound), the hemolysis at 10 µg/mL was -1.3 ± 0.2%.

`CCc1cc(C(=O)COc2ccc(C(C)(C)C)cc2)c(O)cc1O` [4b-20]: in data set [1], the activity at 1 µg/mL is 93.6% and the activity at 10 µg/mL is 1%. Besides, the hemolysis at 1 µg/mL in data set [2] (1 μg/mL compound) was 50.6 ± 1.7%. Moreover, in data set [2] (10 μg/mL compound), the hemolysis at 10 µg/mL is 0.4%.

For the compound `CCc1cc(C(=O)COc2ccccc2C(=O)O)c(O)cc1O` [4b-23], the Growth in data set [1] (10 μg/mL compound) is recorded as 101.4%. Further, the Hemolysis in data set [2] (10 μg/mL compound) was determined as 107.8 ± 3.3%.

In turn, `CCc1cc(C(=O)COc2cccc(C(=O)O)c2)c(O)cc1O` [4b-24] had a Growth in data set [1] (10 μg/mL compound) of 106.3%. Besides, in data set [2] (10 μg/mL compound), the Hemolysis came to 70.3 ± 3.4%.

Turning to `CCc1cc(C(=O)COc2ccccc2C(=O)OC)c(O)cc1O` [4b-27], in data set [1], the activity at 10 µg/mL came to 97.8%. Also, the hemolysis at 10 µg/mL in data set [2] (10 μg/mL compound) came to 29.3 ± 2.1%.

On to `CCc1cc(C(=O)COc2ccc(C(=O)OC)cc2)c(O)cc1O` [4b-29], for which the Growth in data set [1] (1 μg/mL compound) was determined as 106.1%; in data set [1] (10 μg/mL compound), 90.2%. For the same compound, the figures for the Hemolysis in data set [2] (1 μg/mL compound) and in data set [2] (10 μg/mL compound) were 144.8 ± 20.6% and 4.5 ± 0.3%, respectively.

For the compound `O=C(COc1ccccc1)c1c(O)cc(O)cc1O` [4c-0], in data set [1] (10 μg/mL compound), the Growth is recorded as 108.2%. Moreover, the Hemolysis in data set [2] (10 μg/mL compound) was 46.3 ± 1.9%.

In the case of `O=C(COc1cccc(F)c1)c1c(O)cc(O)cc1O` [4c-1], in data set [1], the activity at 1 µg/mL turned out to be 105% and the activity at 10 µg/mL is 76.9%. The hemolysis at 1 µg/mL in data set [2] (1 μg/mL compound) came out at 120 ± 18.5%. In data set [2] (10 μg/mL compound), the hemolysis at 10 µg/mL was determined as 1.4 ± 0.1%.

For `O=C(COc1ccccc1Cl)c1c(O)cc(O)cc1O` [4c-2], in data set [1], the activity at 1 µg/mL came out at 107% and the activity at 10 µg/mL was 70.1%. Further, the hemolysis at 1 µg/mL in data set [2] (1 μg/mL compound) came to 101 ± 17%. For the same compound, the hemolysis at 10 µg/mL in data set [2] (10 μg/mL compound) was 1.8 ± 0.3%.

Consider `O=C(COc1ccc(I)cc1)c1c(O)cc(O)cc1O` [4c-8], for which the figures for the Growth in data set [1] (1 μg/mL compound) and in data set [1] (10 μg/mL compound) were 101.9% and 45%, respectively. Further, the Hemolysis in data set [2] (1 μg/mL compound) is reported as 146.9 ± 6.7%; in data set [2] (10 μg/mL compound), 0.1 ± 0.0%.

On to `Cc1ccc(OCC(=O)c2c(O)cc(O)cc2O)cc1` [4c-11], for which, in data set [1], the activity at 1 µg/mL worked out at 111% and the activity at 10 µg/mL was found to be 108%. The hemolysis at 1 µg/mL in data set [2] (1 μg/mL compound) was 99.9 ± 14.1%. Further, the hemolysis at 10 µg/mL in data set [2] (10 μg/mL compound) worked out at 10.8 ± 1.4%.
